Results as given in the supplement of paper PMC10037445.
The full ranking holds about 2,900 compounds; the median of “IRF Lucia reporter activity, fold change vs agonist alone” is about 0.9, and the highest 2% start at about 2.8. The list shows a part of the results.

Tests used:
RAW-Dual [1] = assay: IRF Lucia reporter activity, fold change vs agonist alone; higher = enhanced IRF activity; conditions: agonist: MPLA (TLR4) […]
Summary of the method: (§1)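 RAW-Dual macrophages (50,000 cells/well in DMEM, 384-well plates) received 50 nL of library stock by pin tool, then a PRR agonist 1 h later, and were kept at 37 °C, 5% CO2. After 20 hours, supernatant was read for IRF by QuantiLuc luminescence and for NF-κB by QuantiBlue absorbance at 620 nm. Reporter activity is fold change over agonist-alone wells. Cytotoxic wells had IncuCyte confluency below 70% of agonist controls in both mask sets.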

RAW-Dual [2] = assay: IRF Lucia reporter activity, fold change vs agonist alone; cytotoxicity flag (confluency mask): not cytotoxic; higher = enhanced IRF activity
Summary of the method: as §1

RAW-Dual [3] = assay: IRF Lucia reporter activity, fold change vs agonist alone; cytotoxicity flag (confluency mask): cytotoxic (confluency <70% of control); higher = enhanced IRF activity
Summary of the method: as §1

[4] = library stock concentration (final ~1000-fold dilution): 10 mM, cytotoxicity flag (confluency mask): not cytotoxic
[5] = agonist: 3'3'-cGAMP (STING) 10 ug/mL
[6] = library stock concentration (final ~1000-fold dilution): 10 mM water, cytotoxicity flag (confluency mask): not cytotoxic

Structure (SMILES): C#CCC(Cc1cnc2nc(N)nc(N)c2n1)c1ccc(C(=O)NC(CCC(=O)O)C(=O)O)cc1 (stereo not given)
- IRF Lucia reporter activity (RAW-Dual [1]; [4]): 0.71

Structure (SMILES): C#CCC(Cc1cnc2nc(N)nc(N)c2n1)c1ccc(C(=O)NC(CCC(=O)O)C(=O)O)cc1 (stereo not given) (library stock concentration (final ~1000-fold dilution): 10 mM)
- IRF Lucia reporter activity (RAW-Dual [2]; [5]): 0.96
- IRF Lucia reporter activity (RAW-Dual [2]; agonist: LPS (TLR4) 0.1 ug/mL): 0.977

Structure (SMILES): O=C(O)CCCCC1CCSS1 (stereo not given) (library stock concentration (final ~1000-fold dilution): 10 mM)
- IRF Lucia reporter activity (RAW-Dual [2]; [5]): 0.02
- IRF Lucia reporter activity (RAW-Dual [2]; agonist: LPS (TLR4) 0.1 ug/mL): 0.0586

Structure (SMILES): COc1cc2c(Oc3ccc4[nH]c(C)cc4c3F)ccnc2cc1OCC1(N)CC1.Cl.Cl (library stock concentration (final ~1000-fold dilution): 10 mM)
- IRF Lucia reporter activity (RAW-Dual [3]; [5]): 0.184
- IRF Lucia reporter activity (RAW-Dual [3]; agonist: LPS (TLR4) 0.1 ug/mL): 1.04

Structure (SMILES): C#Cc1cccc(Nc2ncnc3cc(OCCOC)c(OCCOC)cc23)c1.Cl
- IRF Lucia reporter activity (RAW-Dual [1]; library stock concentration (final ~1000-fold dilution): 2 mM, cytotoxicity flag (confluency mask): not cytotoxic): 0.956

Structure (SMILES): C#Cc1cccc(Nc2ncnc3cc(OCCOC)c(OCCOC)cc23)c1.Cl (library stock concentration (final ~1000-fold dilution): 2 mM)
- IRF Lucia reporter activity (RAW-Dual [2]; [5]): 0.27
- IRF Lucia reporter activity (RAW-Dual [2]; agonist: LPS (TLR4) 0.1 ug/mL): 0.435

Structure (SMILES): COc1ccc(-c2cc(=O)c3c(O)cc(OC)cc3o2)cc1 (library stock concentration (final ~1000-fold dilution): 10 mM)
- IRF Lucia reporter activity (RAW-Dual [2]; [5]): 0.974
- IRF Lucia reporter activity (RAW-Dual [2]; agonist: LPS (TLR4) 0.1 ug/mL): 0.894

Structure (SMILES): COc1ccc(-c2cc(=O)c3c(O)cc(OC)cc3o2)cc1
- IRF Lucia reporter activity (RAW-Dual [1]; [4]): 1.05

Structure (SMILES): O=c1c2ccccc2nc2n1CCc1c-2[nH]c2ccccc12
- IRF Lucia reporter activity (RAW-Dual [1]; [4]): 0.949

Structure (SMILES): O=c1c2ccccc2nc2n1CCc1c-2[nH]c2ccccc12 (library stock concentration (final ~1000-fold dilution): 10 mM)
- IRF Lucia reporter activity (RAW-Dual [2]; [5]): 1.04
- IRF Lucia reporter activity (RAW-Dual [2]; agonist: LPS (TLR4) 0.1 ug/mL): 0.82

Structure (SMILES): O=C(/C=C/C=C/c1ccc2c(c1)OCO2)N1CCCCC1
- IRF Lucia reporter activity (RAW-Dual [1]; [4]): 1.06

Structure (SMILES): O=C(/C=C/C=C/c1ccc2c(c1)OCO2)N1CCCCC1 (library stock concentration (final ~1000-fold dilution): 10 mM)
- IRF Lucia reporter activity (RAW-Dual [2]; [5]): 0.947
- IRF Lucia reporter activity (RAW-Dual [2]; agonist: LPS (TLR4) 0.1 ug/mL): 1.02

Structure (SMILES): CC(C)NCC(O)COc1cccc2[nH]c3ccccc3c12 (stereo not given) (library stock concentration (final ~1000-fold dilution): 10 mM)
- IRF Lucia reporter activity (RAW-Dual [2]; [5]): 1.05
- IRF Lucia reporter activity (RAW-Dual [2]; agonist: LPS (TLR4) 0.1 ug/mL): 0.836

Structure (SMILES): CC(C)NCC(O)COc1cccc2[nH]c3ccccc3c12 (stereo not given)
- IRF Lucia reporter activity (RAW-Dual [1]; [4]): 1.05

Structure (SMILES): Cn1c(=O)cc(N2CCCC(N)C2)n(Cc2cc(F)ccc2C#N)c1=O (stereo not given) (library stock concentration (final ~1000-fold dilution): 10 mM)
- IRF Lucia reporter activity (RAW-Dual [2]; [5]): 0.163
- IRF Lucia reporter activity (RAW-Dual [2]; agonist: LPS (TLR4) 0.1 ug/mL): 0.823

Structure (SMILES): Cn1c(=O)cc(N2CCCC(N)C2)n(Cc2cc(F)ccc2C#N)c1=O (stereo not given)
- IRF Lucia reporter activity (RAW-Dual [1]; [4]): 0.945

Structure (SMILES): CC(=O)/C(C)=N/O (library stock concentration (final ~1000-fold dilution): 10 mM)
- IRF Lucia reporter activity (RAW-Dual [2]; [5]): 1.06
- IRF Lucia reporter activity (RAW-Dual [2]; agonist: LPS (TLR4) 0.1 ug/mL): 0.904

Structure (SMILES): CC(=O)/C(C)=N/O
- IRF Lucia reporter activity (RAW-Dual [1]; [4]): 1.07

Structure (SMILES): Cl.Cl.O=c1cc(CN2CCOCC2)occ1OCCCCCSc1ccnc2cc(C(F)(F)F)ccc12
- IRF Lucia reporter activity (RAW-Dual [1]; library stock concentration (final ~1000-fold dilution): 10 mM, cytotoxicity flag (confluency mask): cytotoxic (confluency <70% of control)): 0.925

Structure (SMILES): Cl.Cl.O=c1cc(CN2CCOCC2)occ1OCCCCCSc1ccnc2cc(C(F)(F)F)ccc12 (library stock concentration (final ~1000-fold dilution): 10 mM)
- IRF Lucia reporter activity (RAW-Dual [3]; [5]): 0.502
- IRF Lucia reporter activity (RAW-Dual [3]; agonist: LPS (TLR4) 0.1 ug/mL): 1.03

Structure (SMILES): CCOC(=O)C(CCc1ccccc1)NC(C)C(=O)N1C(=O)N(C)CC1C(=O)O.Cl (stereo not given)
- IRF Lucia reporter activity (RAW-Dual [1]; [4]): 0.958

Structure (SMILES): CCOC(=O)C(CCc1ccccc1)NC(C)C(=O)N1C(=O)N(C)CC1C(=O)O.Cl (stereo not given) (library stock concentration (final ~1000-fold dilution): 10 mM)
- IRF Lucia reporter activity (RAW-Dual [2]; [5]): 0.944
- IRF Lucia reporter activity (RAW-Dual [2]; agonist: LPS (TLR4) 0.1 ug/mL): 0.912

Structure (SMILES): CNCCc1ccccn1.Cl.Cl
- IRF Lucia reporter activity (RAW-Dual [1]; [4]): 0.997

Structure (SMILES): CNCCc1ccccn1.Cl.Cl (library stock concentration (final ~1000-fold dilution): 10 mM)
- IRF Lucia reporter activity (RAW-Dual [2]; [5]): 1.02
- IRF Lucia reporter activity (RAW-Dual [2]; agonist: LPS (TLR4) 0.1 ug/mL): 0.874

Structure (SMILES): CC(O)(P(=O)(O)O)P(=O)(O)O
- IRF Lucia reporter activity (RAW-Dual [1]; [6]): 1.31

Structure (SMILES): CC(O)(P(=O)(O)O)P(=O)(O)O (library stock concentration (final ~1000-fold dilution): 10 mM water)
- IRF Lucia reporter activity (RAW-Dual [2]; [5]): 1.31
- IRF Lucia reporter activity (RAW-Dual [2]; agonist: LPS (TLR4) 0.1 ug/mL): 0.711

Structure (SMILES): C=C1CCC2C(C)(CO)C(O)CC[C@@]2(C)[C@@H]1C/C=C1/C(=O)OCC1O (stereo not given in full) (library stock concentration (final ~1000-fold dilution): 10 mM)
- IRF Lucia reporter activity (RAW-Dual [2]; [5]): 0.0401
- IRF Lucia reporter activity (RAW-Dual [2]; agonist: LPS (TLR4) 0.1 ug/mL): 0.177

Structure (SMILES): CN(C)CCN(Cc1ccccc1)c1ccccn1.Cl
- IRF Lucia reporter activity (RAW-Dual [1]; [6]): 1.39

Structure (SMILES): CN(C)CCN(Cc1ccccc1)c1ccccn1.Cl (library stock concentration (final ~1000-fold dilution): 10 mM water)
- IRF Lucia reporter activity (RAW-Dual [2]; [5]): 1.35
- IRF Lucia reporter activity (RAW-Dual [2]; agonist: LPS (TLR4) 0.1 ug/mL): 0.908
